According to publication PMC4336329 (PLoS ONE, 2015):
Hit rate of the full screen: of about 310,000 compounds, about 14,000 (4.5%) showed an effect of 50% or more. The effect is printed as a negative number. The list shows a part of the results.

Biological target: human ether-à-go-go-related gene (hERG) potassium channel (human, UniProt Q12809)
Experiment: primary screen, population patch clamp on CHO cells stably expressing hERG
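Also: peak tail current of the secondary pulse compared with the same well before compound.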

Sequence of human ether-à-go-go-related gene (hERG) potassium channel (Q12809 whole entry, looked up): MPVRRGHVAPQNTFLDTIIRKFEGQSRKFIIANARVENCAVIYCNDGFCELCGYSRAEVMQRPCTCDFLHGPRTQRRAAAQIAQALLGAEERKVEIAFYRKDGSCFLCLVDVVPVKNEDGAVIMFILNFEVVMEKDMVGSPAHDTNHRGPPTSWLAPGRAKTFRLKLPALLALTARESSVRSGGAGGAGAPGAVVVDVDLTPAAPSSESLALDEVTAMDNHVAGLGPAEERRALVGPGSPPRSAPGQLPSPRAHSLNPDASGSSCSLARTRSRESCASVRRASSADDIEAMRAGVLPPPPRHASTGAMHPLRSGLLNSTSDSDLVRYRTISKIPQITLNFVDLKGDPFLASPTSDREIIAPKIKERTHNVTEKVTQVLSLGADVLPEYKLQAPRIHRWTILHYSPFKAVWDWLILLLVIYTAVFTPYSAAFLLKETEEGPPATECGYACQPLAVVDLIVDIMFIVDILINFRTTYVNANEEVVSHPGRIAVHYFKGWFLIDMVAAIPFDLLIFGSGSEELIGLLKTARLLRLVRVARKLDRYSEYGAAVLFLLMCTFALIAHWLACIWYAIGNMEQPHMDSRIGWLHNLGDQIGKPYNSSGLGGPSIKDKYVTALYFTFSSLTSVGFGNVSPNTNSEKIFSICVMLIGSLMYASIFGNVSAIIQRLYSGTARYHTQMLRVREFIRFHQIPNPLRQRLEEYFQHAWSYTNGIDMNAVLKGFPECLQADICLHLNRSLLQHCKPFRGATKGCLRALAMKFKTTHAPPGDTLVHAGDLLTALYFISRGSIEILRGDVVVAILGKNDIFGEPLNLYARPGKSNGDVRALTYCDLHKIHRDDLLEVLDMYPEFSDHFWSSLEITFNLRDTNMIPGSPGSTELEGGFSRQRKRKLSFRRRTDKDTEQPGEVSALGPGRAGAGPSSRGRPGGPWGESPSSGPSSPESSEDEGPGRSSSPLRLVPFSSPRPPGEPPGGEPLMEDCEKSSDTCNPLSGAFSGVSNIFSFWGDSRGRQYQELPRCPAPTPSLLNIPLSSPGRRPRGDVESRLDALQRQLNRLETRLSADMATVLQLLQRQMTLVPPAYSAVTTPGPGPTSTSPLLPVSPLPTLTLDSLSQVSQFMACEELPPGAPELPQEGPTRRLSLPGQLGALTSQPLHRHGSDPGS

SMILES | hERG current change (%, negative = inhibition) at 10uM
CCOC(=O)C1=C(O)/C(=C/c2ccc(OCC(=O)Nc3ccc(C)cc3)cc2)N=C1C | 10.6%
O=C(CN1CCC(C(=O)c2ccc3c(c2)OCCO3)CC1)NCc1ccc(F)cc1 | -30.2%
COc1ccc(OC)c(Nc2cc(C)c3ccccc3n2)c1 | 2%
CC(=O)Oc1cccc(/C=C2\C=C(c3ccc(C)cc3)OC2=O)c1 | 15%
COc1ccc(Cc2c(O)nc(SCC(=O)N3CCOCC3)[nH]c2=O)cc1 | 9.05%
Cc1nn(CC(=O)NCc2cccnc2)c(C)c1[N+](=O)[O-] | 8.85%
Cc1noc(C)c1S(=O)(=O)Nc1ccc(C(=O)NCc2ccccc2)cc1 | -0.378%
OCC1C2c3ccccc3C(c3ccccc32)C1CO (centres unmarked) | 4.25%
Nc1ncc(-c2ccccc2)n1CC1CCCO1 (centres unmarked) | -7.62%
O=C1CCCC(O)=C1C1C2=C(CCCC2=O)OC2=C1C(=O)CCC2 | 19%
O=C(c1ccccc1)N1CCN(S(=O)(=O)N2CCCCCC2)CC1 | 4.44%
O=C(N/N=C/c1ccncc1)c1ccccn1 | 13.7%
CCOC(=O)c1nc(-c2ccccc2)oc1N(C)C | -3.12%
CCOC(=O)CCC(=O)Nc1ccc([N+](=O)[O-])cc1C | 6.89%
CC(C)CNC(=O)c1cc2nc(C3CC3)cc(C(F)(F)F)n2n1 | 6.19%
CN(C)c1ccc(C(=O)NC2(N3CCC3=O)CCCC2)cc1 | 21%
O=C(NCCN1CCN(c2ccccc2)CC1)c1ccc2c(c1)[nH]c(=S)n1c3ccccc3nc21 | 21.7%
O=C(c1ccccc1)C1CN(Cc2ccccc2)CCC1(O)c1ccccc1 (centres unmarked) | -2.69%
CCC(C(=O)N1CCC(C(N)=O)CC1)n1nc(C)n2c(cc3occc32)c1=O (centres unmarked) | -23.5%
CS(=O)(=O)NCCCNc1ccc(C(F)(F)F)cc1[N+](=O)[O-] | -35.1%
O=c1c(C=NCCCO)c(-c2ccccc2)[nH]n1-c1nc2ccccc2s1 | -72.6%
Nc1ncc(Br)cc1Br | 4.15%
CCC(CC)C(=O)Nc1ccc(C(=O)c2ccccc2)cc1 | -13.3%

SMILES | hERG current change (%, negative = inhibition) at 10uM
O=C(CN1CCCC1)Nc1ccccc1Sc1ccccc1 | -13.5%
COc1ccccc1CN1CC(C(=O)NC2CCOCC2)CCC1=O (centres unmarked) | 13.3%
N=c1c(C(=O)NC2CCCCC2)cc2c(=O)n3ccccc3nc2n1Cc1cccnc1 | -73.3%
O=C(NCCc1cccc(Cl)c1)c1cccc([N+](=O)[O-])c1 | -15.7%
COc1cccc(NC(=S)N(CCc2ccc(OC)c(OC)c2)Cc2ccccn2)c1 | -41%
CCOc1ccccc1N1CCN(c2nc3ccccc3nc2C(C#N)C(=O)OC)CC1 (centres unmarked) | 10.7%
COc1ccccc1NC(=O)c1ccc2snnc2c1 | -18.3%
COCCN1CCN(C(=O)C2CCC(=O)N(CCc3ccccc3)C2)CC1 (centres unmarked) | 5.79%
Cc1c(NS(=O)(=O)c2cccc(C(=O)O)c2)c(=O)n(-c2ccccc2)n1C | -0.297%
Cl.OCC(CO)(CO)NCc1ccc(-c2ccccc2)cc1 | -0.626%
Nc1scc2c(C(=O)N/N=C/c3ccc(Cl)cc3)nn(-c3ccccc3)c(=O)c12 | -7.61%
O=C(c1cn(CC(=O)N2CCCC2)c2ccccc12)C1CCCCC1 | -14.5%
c1ccc(-c2noc(-c3cccc4ccccc34)n2)nc1 | 1.58%
COc1ccc(-n2nc(C(=O)NCC(=O)Nc3cccc(NC(C)=O)c3)c3ccccc3c2=O)cc1 | 16.1%
O=C(c1cnn2c(C(F)(F)F)cc(-c3ccco3)nc12)N1CCc2ccccc2C1 | -8.6%
O=C1NC(=O)C(=Cc2ccc(-c3ccc(Cl)cc3)o2)C(=O)N1 | 9.09%
O=S(=O)(NC1CC1)c1ccc(S(=O)(=O)N2CCCC3(CCCCC3)C2)cc1 | 12.7%
Cc1ccc(S(=O)(=O)N(C)C)cc1NC(=O)C(C)N(C)CCOc1ccc(Cl)cc1 (centres unmarked) | -26.7%
CCOC(=O)C1CCN(C(=S)Nc2ccc(CC)cc2)CC1 | -10.2%
O=C(COC(=O)CNC(=O)c1ccccc1F)NC12CC3CC(CC(C3)C1)C2 | 0.652%
CCC(CC)C(=O)N=C1SC2CS(=O)(=O)CC2N1CCc1ccc(OC)cc1 (centres unmarked) | -20.7%
CC1=CC(c2ccccc2)n2nc(N3C(=O)C4CC=CCC4C3=O)nc2N1 (centres unmarked) | -7.93%
Cc1cc(CN(C)Cc2cn(C)nc2-c2ccc(Oc3ccccc3)cc2)on1 | -10.9%

SMILES | hERG current change (%, negative = inhibition) at 10uM
CN1CCC(N2CCN(c3cccc(C(F)(F)F)c3)CC2)CC1 | -12.8%
Cc1noc(C)c1CSCC(=O)OCc1nc2ccccc2c(=O)n1CC#N | 8.38%
CCOc1ccc(-n2c(O)c(C=NCCN3CCNCC3)c(=O)[nH]c2=O)cc1 | 6.99%
CC1(NC(=S)Nc2ccc3ccccc3c2)CCS(=O)(=O)C1 (centres unmarked) | 13.3%
CCN(CC)C(=O)C1CCN(S(=O)(=O)c2ccc(C3CNC(=O)C3)cc2)CC1 (centres unmarked) | 7.56%
COc1ccc(C2/C(=C(\O)c3ccc4c(c3)OCCO4)C(=O)C(=O)N2Cc2ccco2)c(OC)c1 (centres unmarked) | -9.64%
O=C(c1ccccc1)n1nc(-c2ccccc2)nc1NCc1ccco1 | 8.15%
Cc1ccn2cc(CNS(=O)(=O)c3ccc(Cl)s3)nc2c1 | -26.1%
CN(/N=C/c1cc(Br)cc(Br)c1O)c1ccccc1 | 32.8%
Cc1c(C(=O)N2CCOCC2)[nH]c2c1C(=O)CC(c1ccccc1Cl)C2 (centres unmarked) | -23.7%
COc1ccc(NC(=S)NNc2ccc([N+](=O)[O-])cc2S(=O)(=O)Nc2ccc(C)cc2C)cc1 | -7.3%
CC(C)OC(=O)CC1C(=O)NCCN1C(=O)COc1ccc(C(C)(C)C)cc1 (centres unmarked) | 9.59%
COc1ccccc1-c1nnc(SCC(=O)O)n1C | 10%
Cc1nn(CC(=O)N2CCC(N3CCCCC3)CC2)c(=O)c2c1sc1ccccc12 | -16.7%
CCSc1nc2ccccc2n1C(=O)c1ccc(S(=O)(=O)N2CCCCC2)cc1 | -24.7%
O=C(CSc1nnnn1-c1cccc(O)c1)NC1CC1 | 29.8%
CCS(=O)(=O)c1ccc(O)c(NC(=O)Nc2ccccc2OC)c1 | 8.74%
CC1(C)S[C@@H]2[C@H](NC(=O)Cc3ccccc3)C(=O)N2[C@H]1C(=O)O | 7.55%
S=c1[nH]nc(-c2ccc3ccccc3n2)n1Cc1ccccc1 | 8.36%
CN(CC1CCCN(CCc2ccccc2F)C1)C(=O)c1ccoc1 (centres unmarked) | -66.7%
Cc1cc(C)cc(-n2c(C)cc(C(=O)CSc3nnnn3C)c2C)c1 | -2.36%
COc1ccc(N(C(=O)c2ccco2)C(C(=O)NC2CCCC2)c2cccs2)cc1 (centres unmarked) | -27.3%
CCOc1ccc(OCCC(=O)Nc2ccc3c(c2)OCO3)cc1 | 10.2%

SMILES | hERG current change (%, negative = inhibition) at 10uM
COc1ccc(C2N(C(=O)c3ccccc3)CCN2C(=O)c2ccc(C)cc2)cc1 (centres unmarked) | -24.9%
O=C(CCNC(=O)c1ccc([N+](=O)[O-])cc1)Nc1cc(Cl)ccc1N1CCOCC1 | -69.9%
O=C(Cn1cc2c(n1)CCCC2)NC1CCCCCC1 | 2.68%
CN(CC(O)COCc1cccs1)C1CCCCC1 (centres unmarked) | -12.1%
N/C(=N\OC(=O)c1ccc(Cl)c([N+](=O)[O-])c1)c1ccccn1 | 7.22%
O=C(Cn1nc(-c2ccccc2)ccc1=O)N1CCOCC1 | -6.25%
N/C(=N\OC(=O)/C=C/c1ccc(Br)cc1)c1ccccn1 | -6.37%
COC(=O)c1cc(S(=O)(=O)N2CCCC2)c(Cl)cc1Cl | -9.9%
COC(=O)CNc1nc(Cl)nc(Nc2ccc(Cl)cc2)n1 | 10.7%
COc1ccc(OC)c(-n2c(=S)[nH]c3cc(C(=O)N(C)Cc4ccccc4)ccc3c2=O)c1 | 2.8%
O=C(NCCc1ccccc1)C1CCC(=O)N1CCc1ccccc1 (centres unmarked) | 8.78%
Cc1occc1C(=O)N/N=C/c1cccc2ccccc12 | 6.66%
O=C(CCC(=O)N1CCSc2ccccc21)NCc1ccccc1 | -0.536%
COCCNC(=O)CN1CCN(S(=O)(=O)c2ccc3c(c2)CCCC3)CC1 | -7.28%
CCN=C1SC(C(=O)Nc2cccc(C(=O)O)c2)CC(=O)N1CC (centres unmarked) | 9.61%
Cc1cc(NC(=O)CSCc2ccccc2)no1 | 13.4%
COc1cc(OC)cc(C(=O)N2CCC(C(=O)c3ccc(F)cc3)CC2)c1 | -30.8%
CCOC(=O)C(=O)NNc1ccc(Cl)cc1 | 25.7%
CN(C)S(=O)(=O)c1ccc(C(=O)Nc2ccc3c(c2)CCC3)cc1 | -52%
CC(C)(C)c1csc(NC(=O)CSC2=NCCS2)n1 | -6.03%
